According to PubChem BioAssay AID485364 (National Center for Advancing Translational Sciences (NCATS), 2010):
In all, about 360,000 compounds went through this assay and about 11,000 (3.1%) were called active. Inconclusive results, whose numbers are uncertain, are shown with a selection of clear calls. Calls follow the shape of the dose curve; as a rule, active = well fitted inhibition curve with a large enough effect; inconclusive = small, poorly fitted or top-dose-only effect; inactive = no such curve, though single readings can be large or run the other way. No potency is given beside an inconclusive call; the fits are too rough.

Biological target: Schistosoma mansoni thioredoxin glutathione reductase (TGR) (UniProt Q962Y6)
Experiment: qHTS Assay for the Inhibitors of Schistosoma Mansoni Peroxiredoxins; also: nearly all actives have a fitted effect of over 60% in size
Details: purified TGR, DTNB reduction, TNB absorbance 405 nm; activity change, negative = inhibition: at 114 µM (top of the series) unless noted
Procedure, shortened: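 TGR 20 nM + NADPH 100 uM (dispensed conc.), cpd preinc 15 min RT; start with NADPH (500 uM addition) then DTNB (15 mM addition). Kinetic TNB absorbance, 405 nm filter. Four-parameter Hill fit across titration.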
% is scaled to controls: 0 for no effect and ±100 for the full control effect; potency is read from the fitted curve at half-maximal effect; tags tell the direction and shape of the fitted curve.

Structure (SMILES)	Potency	activity change, negative = inhibition
CC1(C)CC(=O)C=C(Nc2ccc(C(=O)O)c(O)c2)C1	inconclusive [inhibitor, full curve]	–
COc1ccc(S(=O)(=O)/N=C2/C=CC(=O)C(C)=C2C)cc1	inconclusive [inhibitor, full curve]	–
Nc1c(C(=O)Nc2ccc(F)cc2)sc2nc(-c3ccco3)ccc12	inconclusive [inhibitor, full curve, poor fit]	–
CS(=O)(=O)N1N=C(c2ccco2)CC1c1cccc([N+](=O)[O-])c1 (centres undefined)	active: 44.7 µM	–
O=C(CNc1ccc2ccccc2c1)N/N=C/c1cc2ccccc2nc1Cl	inconclusive [inhibitor, partial curve]	–
O=c1oc2cc(O)c(Cl)cc2c2ccccc12	–	inactive: -6.84%
N#CCN1CCN(CC(=O)c2ccc(Br)cc2)CC1	active: 11.2 µM	–
Cc1ccccc1-c1nc(CS(=O)(=O)CC(=O)NCCCN2CCCC2=O)c(C)o1	active: 20 µM	–
COc1ccc(-c2cc(C#N)nc(Cl)n2)cc1	inconclusive [inhibitor, partial curve]	–
COc1ccc(CCN2CC3=C(C2=O)C(c2ccccc2)NC(=O)N3C)cc1OC (centres undefined)	inconclusive [inhibitor, partial curve]	–
Cc1cccc(C(=O)NN2C(=O)C3C(c4ccccc4)C=CC(c4ccccc4)C3C2=O)c1 (centres undefined)	–	inactive: -7.18%
C/C=C/C=C/C(=O)Nc1cccc(C2=NOC3(C2)C[C@H](C(N)=O)N(C(=O)CC(c2ccccc2)c2ccccc2)C3)c1 (some centres undefined)	inconclusive [inhibitor, full curve, poor fit]	–
Cc1ccccc1S(=O)(=O)Cc1ccc(C(=O)NCCN(C)Cc2ccccc2)o1	inconclusive [inhibitor, partial curve]	–
COc1ccccc1C(=O)Nc1ccc2c(c1)CC1(C(=O)N(C)C(=O)N(C)C1=O)C1CCCN21 (centres undefined)	active: 35.5 µM	–
Cc1ccc(NC(=O)N(Cc2ccco2)Cc2cc3cc(C)cc(C)c3nc2Cl)cc1	–	inactive: -0.312%
Cc1nc2cccnc2n1-c1cccc(C(=O)NCCc2ccc(Cl)cc2)c1	–	inactive: -1.95%
CCOc1ccc(CNc2ccc(N3CCCC3)cc2)cc1	inconclusive [inhibitor, partial curve, poor fit]	–
Cc1ccc(CNC(=O)CSc2c3c(nc4ccc(Cl)cc24)CCCC3)o1	inconclusive [inhibitor, partial curve]	–
C/C(=N\O)C(C)Oc1ccc(Cl)cc1 (centres undefined)	inconclusive [inhibitor, single point]	–
